Measurements: doi:10.1101/589580 (bioRxiv, 2019)

Target: full-length ZO1 with C-terminal mEGFP (UniProt Q07157 1-1748)
Test: client partitioning into phase-separated droplets

Chain of UniProt Q07157 (Q07157 whole entry): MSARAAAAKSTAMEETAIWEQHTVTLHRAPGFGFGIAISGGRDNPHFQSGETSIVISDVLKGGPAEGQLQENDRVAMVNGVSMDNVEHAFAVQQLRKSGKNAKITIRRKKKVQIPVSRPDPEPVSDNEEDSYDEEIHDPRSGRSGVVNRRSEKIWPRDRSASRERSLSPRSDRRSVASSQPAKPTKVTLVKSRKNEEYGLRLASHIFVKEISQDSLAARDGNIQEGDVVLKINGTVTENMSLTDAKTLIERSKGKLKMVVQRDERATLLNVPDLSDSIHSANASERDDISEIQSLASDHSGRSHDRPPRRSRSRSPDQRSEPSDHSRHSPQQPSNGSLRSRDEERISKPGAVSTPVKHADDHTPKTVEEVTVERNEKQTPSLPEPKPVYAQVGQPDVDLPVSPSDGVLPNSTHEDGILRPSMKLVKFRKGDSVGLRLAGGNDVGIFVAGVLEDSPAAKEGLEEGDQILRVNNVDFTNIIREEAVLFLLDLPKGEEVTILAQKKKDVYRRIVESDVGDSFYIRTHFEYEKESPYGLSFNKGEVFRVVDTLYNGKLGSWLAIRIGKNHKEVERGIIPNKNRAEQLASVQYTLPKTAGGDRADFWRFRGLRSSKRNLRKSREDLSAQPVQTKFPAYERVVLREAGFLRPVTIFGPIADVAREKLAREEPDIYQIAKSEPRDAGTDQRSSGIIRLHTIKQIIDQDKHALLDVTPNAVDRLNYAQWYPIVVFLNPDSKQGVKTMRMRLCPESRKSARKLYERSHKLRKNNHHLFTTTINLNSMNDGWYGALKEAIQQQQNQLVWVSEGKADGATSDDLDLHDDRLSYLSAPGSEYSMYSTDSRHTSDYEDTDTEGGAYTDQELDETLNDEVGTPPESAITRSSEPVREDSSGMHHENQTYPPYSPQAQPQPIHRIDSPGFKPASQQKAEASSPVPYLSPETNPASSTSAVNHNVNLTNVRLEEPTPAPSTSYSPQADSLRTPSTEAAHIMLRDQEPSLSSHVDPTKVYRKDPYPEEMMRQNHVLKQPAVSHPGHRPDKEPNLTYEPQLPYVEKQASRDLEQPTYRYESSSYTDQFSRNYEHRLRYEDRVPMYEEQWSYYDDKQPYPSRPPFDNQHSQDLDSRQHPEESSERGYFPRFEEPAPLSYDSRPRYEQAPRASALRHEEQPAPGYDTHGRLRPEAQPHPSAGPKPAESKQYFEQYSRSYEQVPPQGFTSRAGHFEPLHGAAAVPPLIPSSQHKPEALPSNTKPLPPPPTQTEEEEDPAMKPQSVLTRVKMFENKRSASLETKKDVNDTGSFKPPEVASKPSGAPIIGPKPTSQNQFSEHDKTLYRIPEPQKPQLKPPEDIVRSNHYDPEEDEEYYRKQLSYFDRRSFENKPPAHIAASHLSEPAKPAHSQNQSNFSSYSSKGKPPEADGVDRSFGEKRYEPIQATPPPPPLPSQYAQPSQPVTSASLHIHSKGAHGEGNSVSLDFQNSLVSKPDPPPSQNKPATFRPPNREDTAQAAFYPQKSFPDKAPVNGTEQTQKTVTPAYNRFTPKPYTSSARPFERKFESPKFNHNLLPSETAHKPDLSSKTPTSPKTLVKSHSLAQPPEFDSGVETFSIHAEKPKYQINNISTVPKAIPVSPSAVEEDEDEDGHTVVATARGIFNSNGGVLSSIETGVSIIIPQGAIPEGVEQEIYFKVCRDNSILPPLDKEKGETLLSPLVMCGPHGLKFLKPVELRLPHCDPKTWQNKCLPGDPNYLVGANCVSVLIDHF

partitioning (client fluorescence inside/outside ZO1 droplets): 9 fold
B1: transcription factor YAP (natural protein)
chain: not shown
